From PMC3158094 come the findings set out here.

The target of assay [1] is T1, GFP-mTC48 (TC48 D182A, catalytically inactive substrate trap mutant) (UniProt P17706).
T1 sequence: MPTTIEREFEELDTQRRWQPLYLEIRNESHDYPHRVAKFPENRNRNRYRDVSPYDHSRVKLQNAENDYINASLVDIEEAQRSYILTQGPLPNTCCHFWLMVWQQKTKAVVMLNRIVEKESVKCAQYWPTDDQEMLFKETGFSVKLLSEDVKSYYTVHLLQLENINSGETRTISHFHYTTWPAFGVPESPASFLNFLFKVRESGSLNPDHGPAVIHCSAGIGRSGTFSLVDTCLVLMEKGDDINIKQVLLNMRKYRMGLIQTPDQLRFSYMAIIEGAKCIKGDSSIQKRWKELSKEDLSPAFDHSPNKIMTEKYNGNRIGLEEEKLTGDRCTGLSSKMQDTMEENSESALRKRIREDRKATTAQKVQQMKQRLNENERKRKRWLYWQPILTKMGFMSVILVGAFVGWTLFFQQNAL
The experiment in a line: co-IP; GFP antibody or control mouse IgG, protein A/G plus agarose, from lysates of HEK293 cells expressing C3G and GFP-mTC48 (or GFP and C3G, or mTC48 alone); blots for C3G and GFP; in Fig. 1D cells treated 10 min with pervanadate before lysis.

In assay [2] the target is T1, GFP-mTC48 (TC48 D182A, catalytically inactive substrate trap mutant). The assay can be described thus: condition: only cells treated with 50µM vanadate (VO4) for 4 hrs; co-IP; as a1, GFP-mTC48 immunoprecipitated from HEK293 cells expressing C3G and GFP-mTC48 that were treated with 50 µM vanadate for 4 hrs and 10 min with pervanadate before lysis.
The target in assay [3] is T2, GST-CBR (Crk binding region of C3G, residues 268-648, fused to GST) (UniProt Q13905).
T2 sequence: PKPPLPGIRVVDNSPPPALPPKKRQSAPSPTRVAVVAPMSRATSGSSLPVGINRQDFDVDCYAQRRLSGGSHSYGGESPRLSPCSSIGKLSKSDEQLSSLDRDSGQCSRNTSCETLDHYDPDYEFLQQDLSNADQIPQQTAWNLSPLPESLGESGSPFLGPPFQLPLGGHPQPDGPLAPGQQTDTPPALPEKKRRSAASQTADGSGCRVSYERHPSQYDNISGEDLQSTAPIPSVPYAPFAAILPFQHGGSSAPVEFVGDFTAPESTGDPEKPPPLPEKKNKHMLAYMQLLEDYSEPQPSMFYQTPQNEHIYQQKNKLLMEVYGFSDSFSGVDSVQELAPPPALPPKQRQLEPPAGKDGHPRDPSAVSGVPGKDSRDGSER
The experiment in a line: pull-down; GST or GST-CBR coupled to glutathione-agarose beads, incubated with lysates of HEK293 cells expressing GFP or GFP-TC-PTP constructs; washed beads blotted for GFP; only the target purified.

The target of assay [4] is T3, C3G (RapGEF1), full length, exogenously expressed (UniProt Q13905).
T3 sequence: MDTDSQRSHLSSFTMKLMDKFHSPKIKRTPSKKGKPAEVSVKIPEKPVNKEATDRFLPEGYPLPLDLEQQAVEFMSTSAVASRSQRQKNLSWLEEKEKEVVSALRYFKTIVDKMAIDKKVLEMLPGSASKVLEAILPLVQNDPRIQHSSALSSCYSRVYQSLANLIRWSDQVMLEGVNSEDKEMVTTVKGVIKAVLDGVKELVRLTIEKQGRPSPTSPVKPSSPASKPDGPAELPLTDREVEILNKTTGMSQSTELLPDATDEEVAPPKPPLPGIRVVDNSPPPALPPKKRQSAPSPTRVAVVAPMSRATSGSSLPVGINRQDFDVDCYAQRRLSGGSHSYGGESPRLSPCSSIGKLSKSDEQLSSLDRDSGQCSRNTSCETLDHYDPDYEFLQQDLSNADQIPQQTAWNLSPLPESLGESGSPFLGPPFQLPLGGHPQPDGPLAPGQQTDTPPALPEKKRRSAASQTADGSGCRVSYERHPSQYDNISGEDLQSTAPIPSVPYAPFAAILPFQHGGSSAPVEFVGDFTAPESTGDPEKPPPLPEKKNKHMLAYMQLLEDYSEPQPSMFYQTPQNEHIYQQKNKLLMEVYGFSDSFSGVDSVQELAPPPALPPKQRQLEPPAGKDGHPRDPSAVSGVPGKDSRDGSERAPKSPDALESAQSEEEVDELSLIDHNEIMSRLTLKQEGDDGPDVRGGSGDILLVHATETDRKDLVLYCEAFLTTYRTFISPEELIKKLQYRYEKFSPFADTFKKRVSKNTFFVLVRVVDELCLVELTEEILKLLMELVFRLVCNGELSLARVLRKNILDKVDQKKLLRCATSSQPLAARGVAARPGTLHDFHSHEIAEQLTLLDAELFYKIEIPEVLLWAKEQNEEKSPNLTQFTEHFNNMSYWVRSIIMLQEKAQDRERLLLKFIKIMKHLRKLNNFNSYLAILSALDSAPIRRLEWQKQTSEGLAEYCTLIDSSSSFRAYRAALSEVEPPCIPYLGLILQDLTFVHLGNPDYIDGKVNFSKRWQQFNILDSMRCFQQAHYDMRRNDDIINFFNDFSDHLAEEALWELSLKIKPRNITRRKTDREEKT
The experiment in a line: co-IP; C3G antibody or control IgG, from lysates of HEK293 cells expressing C3G and GFP-Src with either TC48 or mTC48; TC48 cells with or without sodium vanadate treatment; blots with the indicated antibodies.

Where a chain is given by its changes, count along the chain named. In names and notes the source's numbering stands. No constants are given. Whether binding was seen depends on the method and setting. In cells and extracts the contact can be indirect. Some binding calls cover weakened binding; strength is not graded here. Sequences can lack the tags named with a protein.

B1: C3G (RapGEF1), full length, exogenously expressed (protein, UniProt Q13905 1-1077)
chain: T3 sequence
Regarding B1, the binding result is listed as “binds” in assay [1] and “no binding” in assay [2].

B2: cellular (endogenous) C3G of HEK293 cells (protein, UniProt Q13905 1-1077)
chain: T3 sequence
As for B2, the binding entry in assay [1] is “binds”.

B3: GFP-TC45 (TC-PTP isoform TC45) (enzyme, UniProt P17706-2 1-387)
chain: MPTTIEREFEELDTQRRWQPLYLEIRNESHDYPHRVAKFPENRNRNRYRDVSPYDHSRVKLQNAENDYINASLVDIEEAQRSYILTQGPLPNTCCHFWLMVWQQKTKAVVMLNRIVEKESVKCAQYWPTDDQEMLFKETGFSVKLLSEDVKSYYTVHLLQLENINSGETRTISHFHYTTWPDFGVPESPASFLNFLFKVRESGSLNPDHGPAVIHCSAGIGRSGTFSLVDTCLVLMEKGDDINIKQVLLNMRKYRMGLIQTPDQLRFSYMAIIEGAKCIKGDSSIQKRWKELSKEDLSPAFDHSPNKIMTEKYNGNRIGLEEEKLTGDRCTGLSSKMQDTMEENSESALRKRIREDRKATTAQKVQQMKQRLNENERKRKRPRLTDT
For B3, the binding entry in assay [3] is listed as “binds”. Turning to RKRIREDRKATTAQKVQQMKQRLNENERKRKRPRLTDT (domain or fragment, UniProt P17706-2 350-387) [GFP-TC45-C38 (C-terminal residues 350-387 of TC45)], in assay [3], the binding result is on record as “binds”.

B4: GFP-TC48 (wild type TC-PTP isoform TC48) (enzyme, UniProt P17706-1 1-415)
chain: T1 sequence with A182D
Regarding B4, the binding result in assay [3] and in assay [4] was “binds” each time.

B5: GFP-mTC48 (TC48 D182A, catalytically inactive substrate trap mutant) (enzyme, UniProt P17706-1 1-415)
chain: T1 sequence
As for B5, the binding entry in assay [4] is given as “binds”.

B6: GFP-TC48-C-66 (C-terminal residues 350-416 of TC48) (domain or fragment, UniProt P17706-1 350-415)
chain: RKRIREDRKATTAQKVQQMKQRLNENERKRKRWLYWQPILTKMGFMSVILVGAFVGWTLFFQQNAL
On to B6, for which, in assay [3], the binding entry is given as “binds”.
